# Measurements from the supplement of paper PMC3724861.
# Some of the results follow.
# Test system: T1, Caupolican (Caup) homeodomain DNA-binding domain
# T1 sequence: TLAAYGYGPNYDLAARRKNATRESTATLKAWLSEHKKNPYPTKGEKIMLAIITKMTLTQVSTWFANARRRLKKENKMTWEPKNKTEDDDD
# Test: PBM E-score (8-mer, recovered from the published 9-mer minima) (E-score (dimensionless, -0.5 to 0.5)); Drosophila protein; higher = stronger relative binding preference, active = 0.31 or more
# Procedure: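 Protein binding microarray (PBM): in vitro transcribed/translated Caupolican (Caup) homeodomain DNA-binding domain (residues 214-303) applied at 100 nM to a universal 8-mer PBM array (Agilent AMADID 015681). The 8-mer enrichment score (E-score, range -0.5 to 0.5) was computed, and each 9-mer score is the minimum E-score of its two constituent 8-mers. The E-score is the same for a 9-mer and its reverse complement; 0.31 is the stated binding threshold.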
row,Sequence,PBM E-score
1,ACCGCGAT,inactive: -0.0575
2,AGGCGATC,inactive: -0.101
3,AAGATCCC,inactive: -0.0141
4,ACCAGAGT,inactive: 0.0242
5,TCTTCTCA,inactive: -0.081
6,CGCGGGAG,inactive: -0.278
7,ATTAAAAC,inactive: 0.195
8,GCGCCAAC,inactive: -0.0963
9,CACTTATG,inactive: 0.066
10,GACCCAGA,inactive: -0.134
11,CCCGAAGC,inactive: -0.126
12,AGAGTCCT,inactive: -0.0833
13,GATCCTGC,inactive: -0.0562
14,GCCGGCGC,inactive: -0.188
15,CTGGTTCC,inactive: -0.0617
16,CTTTTTTC,inactive: -0.0534
17,CCGATGAA,inactive: -0.0817
18,TAGCCCGA,inactive: -0.149
19,AGTGTACC,inactive: 0.207
20,GTGGCACA,inactive: -0.0183
21,AGGTTGGC,inactive: -0.14
22,ATGCGCCG,inactive: -0.109
23,AGTGCGCA,inactive: -0.0732
24,CAGGAGCC,inactive: -0.183

row,Sequence,PBM E-score
1,ACTACGAT,inactive: 0.0836
2,CACATGTC,active: 0.387
3,ATTGTCGA,inactive: 0.127
4,ACATAAGA,inactive: 0.232
5,AATGCAGG,inactive: 0.03
6,TGATTCCA,inactive: 0.0342
7,ATGCGCTC,inactive: -0.0553
8,ACACCTTA,inactive: 0.128
9,AGATTCTC,inactive: -0.0265
10,GCACTTGA,inactive: -0.00239
11,CGTATCAA,inactive: 0.0341
12,CTGATCAG,inactive: 0.0411
13,AACAATAG,inactive: 0.0973
14,ATCACGAC,inactive: 0.113
15,GACAGACC,inactive: 0.0467
16,CAATTCCG,inactive: -0.0737
17,AACAGACA,≥ 0.293
18,AACAGCAG,inactive: 0.0469
19,AGATGCAA,inactive: 0.0564
20,CGCAGCTC,inactive: -0.176
21,ACTATGAA,inactive: 0.123
22,ATGGGCGA,inactive: -0.0775
23,AGACAAGG,inactive: 0.189
24,GCCTTTCA,inactive: -0.177

row,Sequence,PBM E-score
1,GGAGTCAC,inactive: 0.0172
2,GTCCGCAA,inactive: -0.0595
3,ATGGCAGG,inactive: -0.0965
4,GCGCTTAA,inactive: -0.135
5,CGACTTCC,inactive: -0.131
6,CGGCAGCA,inactive: -0.194
7,ATGGCGGG,inactive: -0.157
8,CGCTAGAA,inactive: -0.14
9,ACCTACCA,≥ 0.0213
10,CGAGAGGC,inactive: -0.183
11,AGGTCGCG,inactive: -0.108
12,GCGTCTAA,inactive: -0.0779
13,AAATACTC,inactive: 0.166
14,AAGGTTTC,inactive: -0.0162
15,GCCTGGAC,inactive: -0.117
16,AGTTGAGG,inactive: -0.144
17,ACTTATCC,inactive: 0.0353
18,ACCTGCTA,inactive: 0.0336
19,CGGAACCC,inactive: -0.0462
20,GAGCTTGA,inactive: -0.112
21,ATTTCACG,inactive: -0.0493
22,AGACTAAG,inactive: -0.048
23,AGAGAAGG,inactive: -0.225
24,ATTGAATC,inactive: 0.113

row,Sequence,PBM E-score
1,AACGTCTA,inactive: 0.0278
2,GAGCCTGA,inactive: -0.187
3,GGAAAATA,inactive: 0.0463
4,CCATAACG,inactive: -0.00078
5,AAGGAGGA,inactive: -0.11
6,ATAACTTC,inactive: 0.0508
7,CCCTTGAG,inactive: -0.169
8,GCCACTGA,inactive: -0.153
9,GAAGGTTA,inactive: -0.0583
10,CATACTGA,inactive: 0.109
11,ACCCTCGG,inactive: -0.148
12,CATGAGGG,inactive: -0.0921
13,GCCAGAGA,inactive: -0.122
14,GTAGAGGA,inactive: 0.00507
15,CATTTGTC,inactive: 0.189
16,ACTAACTG,≥ 0.0941
17,GACATACA,active: 0.389
18,AATCAGCG,inactive: -0.0539
19,AACGCCGT,inactive: -0.0851
20,ACACTGGA,inactive: 0.087
21,GCTGTATA,inactive: 0.194
22,CGACCTGA,≥ 0.0488
23,GATCCCAA,inactive: -0.0943
24,GCATGGGA,inactive: -0.103

row,Sequence,PBM E-score
1,AAATTCTC,inactive: -0.0223
2,AAATACCT,inactive: 0.028
3,CCTATTGC,inactive: -0.0285
4,AGATAACA,inactive: 0.221
5,GTGCTCTA,inactive: -0.0573
6,CATAGAAC,inactive: -0.0514
7,AACGTTTG,inactive: -0.00758
8,CAGCTAGA,inactive: -0.0247
9,GAAGATCC,inactive: -0.11
10,AGTAAAAC,inactive: 0.108
11,ACTGCCGC,inactive: -0.193
12,CGTGCATC,inactive: -0.0481
13,ATCGTAAG,inactive: 0.03
14,CCCGCGAA,inactive: -0.153
15,GGACATAC,inactive: 0.179
16,CCTTTTAC,inactive: -0.00807
17,AACAAATG,inactive: 0.174
18,CGGAGCTC,inactive: -0.261
19,CTTCCAAA,inactive: -0.00092
20,CCCATGAA,inactive: -0.0586
21,TCAGGCAA,inactive: -0.0598
22,ATGCAGAC,inactive: 0.0848
23,AGCTAACG,inactive: 0.014
24,GCTTAAGA,inactive: -0.116

row,Sequence,PBM E-score
1,AAGATTCG,inactive: -0.0224
2,AAAGCAAG,inactive: -0.00791
3,AGTGATAA,inactive: 0.126
4,CTGTCGAA,inactive: 0.125
5,CAAGGAAC,inactive: 0.117
6,AGGCCAAA,inactive: -0.112
7,CCGCTCGC,inactive: -0.2
8,CAATGCTA,inactive: 0.0965
9,CGTTTGCA,inactive: 0.048
10,ACCCGTTA,inactive: -0.00165
11,AAATAAGA,inactive: 0.0738
12,ATATAAGA,≥ 0.164
13,CTGTTACA,active: 0.33
14,CCTCGCTA,inactive: -0.113
15,GCAGGACA,inactive: 0.111
16,AAGACCTC,inactive: -0.115
17,TCAGCCGA,≥ -0.0396
18,ACCCATAG,inactive: -0.13
19,AAGCGCTG,inactive: -0.0856
20,CTCAAGGA,inactive: -0.14
21,CCATAGCA,inactive: 0.0725
22,ATAAAACA,inactive: 0.257
23,CGCCACAC,inactive: -0.0919
